# Laboratory results published in PubChem BioAssay (NCATS).
# This list was built around the results that the source calls inconclusive (neither active nor inactive); the mix of calls is not that of the screen. Potencies of inconclusive entries are doubtful fits and often do not repeat. Active and inactive are the calls of the source. Calls come from the whole dose curve; as a rule, active = well fitted inhibition curve with a large enough effect; inconclusive = small, poorly fitted or top-dose-only effect; inactive = flat fitted curve, though single readings scatter.
# System: WaGa
# Assay: qHTS assay to identify novel small-molecules to repurpose for Merkel cell carcinoma treatment (AID 1296009); note: nearly all actives have a fitted effect of over 60% in size
# Conditions: MCC and control cell lines, CellTiter-Glo viability, 72 h; series mostly up to 46 µM
# Text: MCC is a rare and aggressive neuroendocrine skin cancer with limited treatment options. Approximately 80% of MCCs have the Merkel cell polyomavirus (MCPyV) DNA integrated into the host genome (virus-positive: VP-MCC) and viral oncogenes drive oncogenesis. The remaining MCCs are virus-negative (VN-MCC) and are caused by UV mutagenesis. To identify novel treatments for VP-MCC and/or VN-MCC we screened three VP-MCC cell lines (WAGA, MKL-1, MKL-2), three VN-MCC cell lines (MCC-13, MCC-26, UISO), and four immortalized, non-transformed control cell lines (HaCaT, HEK293T, CRL7250, NIH-3T3) against ~2,400 compounds in the NCGC Pharmaceutical Collection (NPC) and ~1,900 compounds in the Mechanism Interrogation PlatE (MiPE). Using cell viability as a readout (CellTiter-Glo assay) we found both overlapping and distinct drugs that can be repurposed for the treatment of VP-MCC and VN-MCC.
# A high-throughput screen was conducted in 1536-well white flat bottom plates (Corning) on a Kalypsys robotic system. Cell lines WAGA, MKL-1, MKL-2, MCC-13, MCC-26, UISO, HaCaT, HEK293T, CRL7250, and NIH-3T3 were screened against 2 small molecule annotated drug libraries NPC and MIPE in dose response (8 and 11 pt. respectively) measuring cell viability after 72 hours of incubation. […] A 1,536 pintool (Kalypsys) was used to transfer 23 nL of compound in DMSO to the 1,536-well assay plates. After 72 hr incubation at 37 degree celsius, 2.5 uL of CellTiter-Glo (Promega) was dispensed into each well using a BiorapTR. Plates were incubated at room temperature for 10 min, transferred to a ViewLux (PerkinElmer) and the luminescence was recorded using an exposure time of 2 seconds. Relative luminescence units (RLUs) were normalized to in-plate controls (no cells as a positive (cytotoxicity) control, DMSO as negative control) and the normalized data was processed using NCATS in-house software.
# Potency is the fitted concentration of half-maximal effect; tags give direction and shape of the fitted curve.
row,Compound,Potency
1,CN1CCN(CCC(=O)N2c3ccccc3Sc3ccc(C(F)(F)F)cc32)CC1,"inconclusive: 26.6 µM [inhibitor, single point]"
2,OC[C@H]1O[C@@H](Oc2ccc(O)cc2)[C@H](O)[C@@H](O)[C@@H]1O,"inconclusive: 26.6 µM [inhibitor, single point]"
3,COc1cc(OC)cc(-c2ccc3ncc4ccc(=O)n(-c5ccc(N6CCNCC6)c(C(F)(F)F)c5)c4c3c2)c1,"inconclusive: 3.32 µM [inhibitor, full curve]"
4,CCc1oc2ccccc2c1C(=O)c1cc(Br)c(O)c(Br)c1,"inconclusive: 33.5 µM [inhibitor, single point]"
5,COc1ccc(CCN(C)CCCN2CCc3cc(OC)c(OC)cc3CC2=O)cc1OC,"inconclusive: 23.7 µM [inhibitor, single point]"
6,COc1cc(C(=O)N2CCC(N3CCN(C)CC3)CC2)ccc1Nc1ncc2c(n1)N(C)c1ccccc1C(=O)N2C,active: 16.6 µM
7,CC(=O)OC[C@H]1O[C@@H](n2ncc(=O)[nH]c2=O)[C@H](OC(C)=O)[C@@H]1OC(C)=O,"inconclusive: 15 µM [inhibitor, partial curve]"
8,CCC1Nc2cc(Cl)c(S(N)(=O)=O)cc2S(=O)(=O)N1 (stereo not given),inactive
9,OC1(c2ccc(Cl)c(C(F)(F)F)c2)CCN(CCCC(c2ccc(F)cc2)c2ccc(F)cc2)CC1,active: 15 µM
10,Clc1ccc(C(c2ccc(Cl)cc2)n2cc[n+](CC(OCc3ccc(Cl)cc3Cl)c3ccc(Cl)cc3Cl)c2)cc1 (stereo not given),"inconclusive: 26.4 µM [inhibitor, single point]"
11,NNC(=O)c1ccncc1,inactive
12,Cc1c(C)c2c(c(C)c1OC(=O)c1cccnc1)CC[C@@](C)(CCC[C@H](C)CCC[C@H](C)CCCC(C)C)O2,inactive
13,O=C(NCCN1CCOCC1)c1ccc(Cl)cc1,inactive
14,O=C(Nc1ncc(-c2cc(C(F)F)nn2-c2c(Cl)cccc2Cl)s1)C1CC1,"inconclusive: 0.935 µM [inhibitor, full curve]"
15,CCOC(=O)[C@H](CCc1ccccc1)N[C@@H](C)C(=O)N1[C@@H](C(=O)O)C[C@H]2CCC[C@@H]21,"inconclusive: 5.26 µM [inhibitor, full curve]"
16,COc1cc(C)c(Sc2cnc(NC(=O)c3ccc(CNC(C)C(C)C)cc3)s2)cc1C(=O)N1CCN(C(C)=O)CC1 (stereo not given),"inconclusive: 16.6 µM [inhibitor, partial curve]"
17,O=C(O)CCNC(=O)c1ccccc1,inactive
18,OCCNC1CCCc2c1[nH]c1ccc(-c3ccccc3)cc21 (stereo not given),"inconclusive: 20.9 µM [inhibitor, single point]"
19,CC[N+](C)(CC)CCOC(=O)C1c2ccccc2Oc2ccccc21,inactive
20,O=C(O)C[C@H](O)C[C@H](O)C=Cc1c(C2CC2)nc2ccccc2c1-c1ccc(F)cc1,active: 7.43 µM

row,Compound,Potency
1,O=C(Nc1cn[nH]c1-c1nc2ccc(CN3CCOCC3)cc2[nH]1)NC1CC1,"inconclusive: 0.0662 µM [inhibitor, full curve]"
2,CC[C@@]1([C@@H]2O[C@@H]([C@H]3O[C@@](O)(CO)[C@H](C)C[C@H]3C)C[C@H]2C)CC[C@H]([C@]2(C)CC[C@]3(C[C@H](O)[C@@H](C)[C@@H]([C@@H](C)[C@@H](OC)[C@H](C)C(=O)O)O3)O2)O1,active: 0.457 µM
3,COc1cc(C[C@@H](CO)[C@H](CO)Cc2ccc(O)c(OC)c2)ccc1O,"inconclusive: 29.6 µM [inhibitor, single point]"
4,COc1cc2c(NC3CCN(C(C)C)CC3)nc(C3CCCCC3)nc2cc1OCCCN1CCCC1,"inconclusive: 33.2 µM [inhibitor, single point]"
5,O=C1CCc2cc(OCCCCc3nnnn3C3CCCCC3)ccc2N1,"inconclusive: 21.1 µM [inhibitor, partial curve]"
6,CC(C)n1c(/C=C/[C@@H](O)C[C@@H](O)CC(=O)O)c(-c2ccc(F)cc2)c2ccccc21,"inconclusive: 33.5 µM [inhibitor, single point]"
7,Cn1cc(CNCC2CCN(c3ncc(C(=O)NO)cn3)CC2)c2ccccc21,active: 0.0296 µM
8,O=C(Nc1nc2cccc(-c3ccc(CN4CCS(=O)(=O)CC4)cc3)n2n1)C1CC1,"inconclusive: 26.4 µM [inhibitor, single point]"
9,COc1cc2c(cc1OC)CN(C(=O)[C@H](C)N[C@@H](CCc1ccccc1)C(=O)O)[C@H](C(=O)O)C2,inactive
10,CCc1c2c(nc3ccc(O)cc13)-c1cc3c(c(=O)n1C2)COC(=O)[C@]3(O)CC,active: 0.0047 µM
11,NC[C@H]1O[C@H](O[C@H]2[C@H](O)[C@@H](O[C@H]3O[C@H](CO)[C@@H](O)[C@H](N)[C@H]3O)[C@H](N)C[C@@H]2N)[C@H](N)[C@@H](O)[C@@H]1O,inactive
12,Cc1oc(-c2ccccc2)nc1CCC(=O)c1ccc(CC2SC(=O)NC2=O)cc1 (stereo not given),"inconclusive: 21.1 µM [inhibitor, single point]"
13,Nc1nc(N)c2nc(-c3cccc(O)c3)c(-c3cccc(O)c3)nc2n1,"inconclusive: 4.69 µM [inhibitor, partial curve]"
14,COc1cccc2c1C(=O)c1c(O)c3c(c(O)c1C2=O)C[C@@](O)(C(C)=O)C[C@H]3O[C@H]1C[C@H](N)[C@H](O)[C@H](C)O1,"inconclusive: 0.0166 µM [inhibitor, full curve, poor fit]"
15,COC(=O)Nc1nc2ccc(C(=O)c3ccc(F)cc3)cc2[nH]1,"inconclusive: 1.18 µM [inhibitor, full curve]"
16,CN1CCCN=C1COC(=O)C(O)(c1ccccc1)C1CCCCC1 (stereo not given),inactive
17,O=C(Nc1cccc(Nc2ncc(Br)c(NCCc3cnc[nH]3)n2)c1)N1CCCC1,active: 2.96 µM
18,C[C@@H](Oc1ccc2[nH]nc(C=Cc3cnn(CCO)c3)c2c1)c1c(Cl)cncc1Cl,"inconclusive: 7.43 µM [inhibitor, full curve]"
19,O=C(O)Cc1csc(-c2ccc(Cl)cc2)n1,inactive
20,CC(N)C12CC3CC(CC(C3)C1)C2 (stereo not given),inactive
